Measurements: the supplement of paper PMC8728848
Some of the results follow.

What was measured:
Assay in all cases: glycan array binding signal (z-score within array); higher = stronger binding
Conditions in all cases: glycan notation: IUPAC condensed, linker removed
[1] = target: Neu5Ac(a2-3)Gal(b1-4)GlcNAc(b1-3)Gal(b1-4)Glc
Outline: (§1)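 The Consortium for Functional Glycomics database supplied 3228 glycan arrays, of which those lacking an available protein sequence were dropped. The binding signal, a within-array Z-score, was averaged across arrays of the same protein sequence and across linkers. Negative scores can be read as non-binding.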

[2] = target: Neu5Ac(a2-3)Gal(b1-4)GlcNAc6S(b1-3)Gal6S(b1-3)GlcNAc6S
Outline: as §1

[3] = target: Neu5Ac(a2-3)Gal(b1-4)[Fuc(a1-3)]GlcNAc(b1-3)Gal
Outline: as §1

[4] = target: Neu5Ac(a2-3)Gal(b1-4)[Fuc(a1-3)]GlcNAc(b1-3)Gal(b1-4)Glc
Outline: as §1

[5] = target: Neu5Ac(a2-3)Gal(b1-4)[Fuc(a1-3)]GlcNAc(b1-3)Gal(b1-4)[Fuc(a1-3)]GlcNAc(b1-3)Gal(b1-4)Glc
Outline: as §1

[6] = target: Neu5Ac(a2-3)Gal(b1-4)[Fuc(a1-3)]GlcNAc6S(b1-3)Gal(b1-4)Glc
Outline: as §1

[7] = target: Neu5Ac(a2-3)Gal(b1-4)[Fuc(a1-3)]GlcNAc6S(b1-3)Gal6S(b1-3)GlcNAc6S
Outline: as §1

[8] = target: Neu5Ac(a2-3)Gal6S(b1-4)[Fuc(a1-3)]GlcNAc(b1-3)Gal(b1-4)Glc
Outline: as §1

[9] = target: Neu5Ac(a2-3)Gal6S(b1-4)[Fuc(a1-3)]GlcNAc6S(b1-3)Gal(b1-4)Glc
Outline: as §1

[10] = target: Neu5Ac(a2-3)[GalNAc(b1-4)]Gal(b1-3)GalNAc(b1-4)[Neu5Ac(a2-3)]Gal(b1-4)Glc
Outline: as §1

[11] = target: Neu5Ac(a2-3)[GalNAc(b1-4)]Gal(b1-4)Glc
Outline: as §1

[12] = target: Neu5Ac(a2-6)Gal(b1-3)GlcNAc(b1-3)[Fuc(a1-3)[Gal(b1-4)]GlcNAc(b1-6)]Gal(b1-4)Glc
Outline: as §1

[13] = target: Neu5Ac(a2-6)Gal(b1-3)GlcNAc(b1-3)[Gal(b1-4)GlcNAc(b1-6)]Gal(b1-4)Glc
Outline: as §1

Neu5Ac(a2-6)Gal(b1-4)Glc = target: Neu5Ac(a2-6)Gal(b1-4)Glc
Outline: as §1

[14] = target: Neu5Ac(a2-6)Gal(b1-4)GlcNAc
Outline: as §1

[15] = target: Neu5Ac(a2-6)Gal(b1-4)GlcNAc(b1-2)Man(a1-3)[Neu5Ac(a2-6)Gal(b1-4)GlcNAc(b1-2)Man(a1-6)]Man(b1-4)GlcNAc(b1-4)GlcNAc
Outline: as §1

[16] = target: Neu5Ac(a2-6)Gal(b1-4)GlcNAc(b1-2)Man(a1-3)[Neu5Gc(a2-6)Gal(b1-4)GlcNAc(b1-2)Man(a1-6)]Man(b1-4)GlcNAc(b1-4)GlcNAc
Outline: as §1

[17] = target: Neu5Ac(a2-6)Gal(b1-4)GlcNAc(b1-2)[Neu5Ac(a2-3)Gal(b1-4)GlcNAc(b1-4)]Man(a1-3)[Neu5Ac(a2-3)Gal(b1-4)GlcNAc(b1-2)Man(a1-6)]Man(b1-4)GlcNAc(b1-4)GlcNAc
Outline: as §1

[18] = target: Neu5Ac(a2-6)Gal(b1-4)GlcNAc(b1-3)Gal(b1-4)Glc
Outline: as §1

[19] = target: Neu5Ac(a2-6)Gal(b1-4)GlcNAc(b1-3)Gal(b1-4)[Fuc(a1-3)]Glc
Outline: as §1

[20] = target: Neu5Ac(a2-6)Gal(b1-4)GlcNAc(b1-3)[Neu5Ac(a2-6)Gal(b1-4)GlcNAc(b1-6)]Gal(b1-4)Glc
Outline: as §1

[21] = target: Neu5Ac(a2-6)Gal(b1-4)GlcNAc(b1-6)[Gal(b1-3)GlcNAc(b1-3)]Gal(b1-4)Glc
Outline: as §1

[22] = target: Neu5Ac(a2-6)Gal(b1-4)[Fuc(a1-3)]GlcNAc(b1-3)Gal(b1-4)Glc
Outline: as §1

Neu5Ac(a2-8)Neu5Ac = target: Neu5Ac(a2-8)Neu5Ac
Outline: as §1

[23] = target: Neu5Ac(a2-8)Neu5Ac(a2-3)Gal(b1-3)GalNAc(b1-4)[Neu5Ac(a2-3)]Gal(b1-4)Glc
Outline: as §1

[24] = target: Neu5Ac(a2-8)Neu5Ac(a2-3)Gal(b1-3)GalNAc(b1-4)[Neu5Ac(a2-8)Neu5Ac(a2-3)]Gal(b1-4)Glc
Outline: as §1

[25] = target: Neu5Ac(a2-8)Neu5Ac(a2-3)Gal(b1-4)Glc
Outline: as §1

[26] = target: Neu5Ac(a2-8)Neu5Ac(a2-3)[Gal(b1-3)GalNAc(b1-4)]Gal(b1-4)Glc
Outline: as §1

[27] = target: Neu5Ac(a2-8)Neu5Ac(a2-3)[GalNAc(b1-4)]Gal(b1-4)Glc
Outline: as §1

[28] = target: Neu5Ac(a2-8)Neu5Ac(a2-8)Neu5Ac
Outline: as §1

[29] = target: Neu5Ac(a2-8)Neu5Ac(a2-8)Neu5Ac(a2-8)Neu5Ac
Outline: as §1

[30] = target: Neu5Ac(a2-8)Neu5Ac(a2-8)Neu5Ac(a2-8)Neu5Ac(a2-8)Neu5Ac
Outline: as §1

[31] = target: Neu5Ac(a2-8)Neu5Ac(a2-8)Neu5Ac(a2-8)Neu5Ac(a2-8)Neu5Ac(a2-8)Neu5Ac
Outline: as §1

[32] = target: Neu5Ac(a2-8)Neu5Ac(a2-8)Neu5Ac(a2-8)Neu5Ac(a2-8)Neu5Ac(a2-8)Neu5Ac(a2-8)Neu5Ac
Outline: as §1

[33] = target: Neu5Ac(a2-8)Neu5Ac(a2-8)Neu5Ac(a2-8)Neu5Ac(a2-8)Neu5Ac(a2-8)Neu5Ac(a2-8)Neu5Ac(a2-8)Neu5Ac
Outline: as §1

[34] = target: Neu5Ac(a2-8)Neu5Ac(a2-8)Neu5Ac(a2-8)Neu5Ac(a2-8)Neu5Ac(a2-8)Neu5Ac(a2-8)Neu5Ac(a2-8)Neu5Ac(a2-8)Neu5Ac
Outline: as §1

[35] = target: Neu5Ac(a2-8)Neu5Ac(a2-8)Neu5Ac(a2-8)Neu5Ac(a2-8)Neu5Ac(a2-8)Neu5Ac(a2-8)Neu5Ac(a2-8)Neu5Ac(a2-8)Neu5Ac(a2-8)Neu5Ac
Outline: as §1

[36] = target: Neu5Ac(a2-8)Neu5Ac(a2-8)Neu5Ac(a2-8)Neu5Ac(a2-8)Neu5Ac(a2-8)Neu5Ac(a2-8)Neu5Ac(a2-8)Neu5Ac(a2-8)Neu5Ac(a2-8)Neu5Ac(a2-8)Neu5Ac
Outline: as §1

Neu5Ac(b2-3)Gal(b1-4)Glc = target: Neu5Ac(b2-3)Gal(b1-4)Glc
Outline: as §1

Neu5Ac(b2-6)Gal(b1-4)Glc = target: Neu5Ac(b2-6)Gal(b1-4)Glc
Outline: as §1

[37] = target: Neu5Ac9Ac(a2-6)Gal(b1-4)GlcNAc
Outline: as §1

Neu5Gc(a2-3)Gal(b1-4)Glc = target: Neu5Gc(a2-3)Gal(b1-4)Glc
Outline: as §1

[38] = target: Neu5Gc(a2-3)[GalNAc(b1-4)]Gal
Outline: as §1

[39] = target: Neu5Gc(a2-6)Gal(b1-4)GlcNAc(b1-2)Man(a1-3)[Neu5Gc(a2-6)Gal(b1-4)GlcNAc(b1-2)Man(a1-6)]Man(b1-4)GlcNAc(b1-4)GlcNAc
Outline: as §1

[40] = target: Xyl(a1-6)Glc(b1-4)[Xyl(a1-6)]Glc(b1-4)[Xyl(a1-6)]Glc(b1-4)Glc
Outline: as §1

Measured: glycan array binding signal (z-score)

B1: CLECSF8 (Mus musculus), Q9Z2H6 (protein)
chain: HYFLRWTRGSVVKLSDYHTRVTCIREEPQPGATGGTWTCCPVSWRAFQSNCYFPLNDNQTWHESERNCSGMSSHLVTINTEAEQNFVTQLLDKRFSYFLGLADENVEGQWQWVDKTPFNPHTVFWEKGESNDFMEEDCVVLVHVHEKWVWNDFPCHFEVRRICKLPGITFNWKPSK
-0.038: [7]
2.35: [34]
0.778: [35]
9.51: [23]
0.688: [31]
2.73: [36]
1.77: [30]
1.43: Neu5Ac(a2-8)Neu5Ac
2.57: [28] | [29]
2.26: [33]
3.32: [40]
2.38: [32]
-0.424: all other assays above
